Reference: the supplement of paper PMC12582362
Counter-ions that a name gives are not always drawn. Hit rate of the full screen: of about 1,500 compounds, about 30 (2%) showed activity.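 Rule for the calls: active = robust z-score below -2; a few such results were not called.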 The list shows a part of the results.

What follows are compounds tested on optoTopBP1 Flp-In 293 T-REx (HEK293) cells (assay: light-induced TopBP1 condensate (nuclear foci) count, plate-normalised robust z-score vs non-control wells; higher = more TopBP1 condensates (negative = condensation inhibitor), active = hit call of the paper). Conditions: 10 µM; incubation time 2 h.
`COc1cc(C(=O)NCc2ccc(OCCN(C)C)cc2)cc(OC)c1OC` [Trimethobenzamide hydrochloride] was tested, and the “light-induced TopBP1 condensate (z-score)” value was inactive: -0.218. `CCCN1CCCC[C@H]1C(=O)Nc1c(C)cccc1C` [Ropivacaine hydrochloride] was tested, and the “light-induced TopBP1 condensate (z-score)” value was inactive: -0.165. `C1CCC(C(CC2CCCCN2)C2CCCCC2)CC1` (centres undefined) [Perhexiline maleate] was tested, and the “light-induced TopBP1 condensate (z-score)” value was inactive: -1.93. For `CC(C)NCC(O)COc1ccc(CCOCC2CC2)cc1` (centres undefined) [Betaxolol hydrochloride], the “light-induced TopBP1 condensate (z-score)” value was inactive: 1.25. For `CCc1nc(N)nc(N)c1-c1ccc(Cl)cc1` [Pyrimethamine], the “light-induced TopBP1 condensate (z-score)” value was inactive: 1.18. In the case of `CC(=O)[C@@]1(O)CC[C@H]2[C@@H]3C[C@H](C)C4=CC(=O)C=C[C@]4(C)[C@@]3(F)[C@@H](O)C[C@@]21C` [Fluorometholone], the “light-induced TopBP1 condensate (z-score)” value is reported as inactive: -0.232. For `CC(C)=C/C(C)=N/Nc1nncc2ccccc12` [Budralazine], the “light-induced TopBP1 condensate (z-score)” value was inactive: -0.574. In the case of `CCN(CC)CCNC(=O)c1cc(Cl)c(N)cc1OC` [Metoclopramide monohydrochloride], the “light-induced TopBP1 condensate (z-score)” value is reported as inactive: -0.224. In the case of `CCOc1ccc2ccccc2c1C(=O)N[C@@H]1C(=O)N2[C@@H]1SC(C)(C)[C@@H]2C(=O)O` [Nafcillin sodium salt monohydrate], the “light-induced TopBP1 condensate (z-score)” value is reported as inactive: 0.719. `CC(C)(CO)C(O)C(=O)NCCCO` (centres undefined) [Panthenol (D)] was tested, and the “light-induced TopBP1 condensate (z-score)” value was inactive: 0.585. For `CN(C)C/C=C(/c1ccc(Br)cc1)c1cccnc1` [Zimelidine dihydrochloride monohydrate], the “light-induced TopBP1 condensate (z-score)” value was inactive: 0.813. With `Cn1cnc2c1c(=O)[nH]c(=O)n2C` [Theobromine] the “light-induced TopBP1 condensate (z-score)” value was inactive: -1.12. With `CC1=NN(c2ccccc2)C(=O)C1` [Edaravone] the “light-induced TopBP1 condensate (z-score)” value was inactive: -0.68. With `CCC[C@@H]1C[C@@H](C(=O)N[C@@H]([C@H]2O[C@H](SC)[C@H](O)[C@@H](O)[C@H]2O)[C@H](C)Cl)N(C)C1` [Clindamycin hydrochloride] the “light-induced TopBP1 condensate (z-score)” value was inactive: 0.556. With `O=C(O)CCNC(=O)c1ccccc1` [Betamipron] the “light-induced TopBP1 condensate (z-score)” value was inactive: -0.17. `O=C(N[C@H](CO)[C@H](O)c1ccc([N+](=O)[O-])cc1)C(Cl)Cl` [Chloramphenicol] was tested, and the “light-induced TopBP1 condensate (z-score)” value was inactive: 1.68. For `C=C1/C(=C\C=C2/CCC[C@]3(C)[C@@H]([C@H](C)CCCC(C)C)CC[C@@H]23)C[C@@H](O)C[C@@H]1O` [Alfacalcidol], the “light-induced TopBP1 condensate (z-score)” value was inactive: -0.899. With `Cc1ccc2c(c1)c1c3n2CCNC3CCC1` (centres undefined) [Pirlindole mesylate] the “light-induced TopBP1 condensate (z-score)” value was inactive: 0.854. For `CN(C)CCC=C1c2ccccc2COc2ccccc21` [Doxepin hydrochloride], the “light-induced TopBP1 condensate (z-score)” value was inactive: -1.36.
